Where “and” joins values, the source holds several entries; their conditions need not be identical. Equal values may be shown once. About 64,000 (15%) of roughly 420,000 compounds were called active. The inconclusive results got no clear call from the source; some entries with a clear call stand among them for comparison. Calls follow the shape of the dose curve; as a rule, active = well fitted inhibition curve with a large enough effect; inconclusive = small, poorly fitted or top-dose-only effect; inactive = flat fitted curve, though single readings scatter. Potencies of inconclusive entries are left out as doubtful fits.
Assay: qHTS for Inhibitors of human tyrosyl-DNA phosphodiesterase 1 (TDP1): qHTS in cells in absence of CPT; also: nearly all actives have a fitted effect of over 55% in size
Conditions: DT40 Tdp1-/- hTDP1 cells, no CPT, ATP luminescence, 48 h; activity change, negative = growth inhibition: at 46.2 µM (top of the series) unless noted
How it was run: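 Chicken DT40 Tdp1-/- cells complemented with human TDP1, screened without camptothecin (DMSO vehicle only), 400 cells/well. Compounds pin-transferred, cells incubated at 37 °C for at least 48 hr. Growth read as ATP-dependent luminescence (CellTiter-Glo, 30 min at RT).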
% is scaled to controls: 0 for no effect and ±100 for the full control effect; potency is read from the fitted curve at half-maximal effect; tags tell the direction and shape of the fitted curve.

Row | SMILES | Potency | activity change, negative = growth inhibition
1 | Cc1ccc(N=C2NC(=O)CC(C(=O)Nc3cc(C(F)(F)F)ccc3Cl)S2)cc1 (stereo not given) | inconclusive [inhibitor, partial curve, poor fit] | –
2 | O=C(Nc1ccc([N+](=O)[O-])cc1)C(c1ccccc1)c1ccccc1 | active: 18.4 µM | –
3 | Cc1cc(C(=O)CN2C(=O)CN(C)C2=O)c(C)n1-c1cccc(S(=O)(=O)N2CCOCC2)c1 | active: 4.61 µM | –
4 | CCOC(=O)C1Oc2ccccc2C(c2ccoc2)=C1C(=O)OC (stereo not given) | inconclusive [inhibitor, single point] | –
5 | CN(C)c1ccc(-c2ccnc3c2CC(C)(C(=O)NCC2CCOCC2)O3)cc1 (stereo not given) | active: 13 µM | –
6 | CC(/C=C\c1ccccc1)=C/C(=O)O | – | inactive: -18.6%
7 | O=C(O)c1ccccc1CC(CCc1ccccc1)C(=O)O (stereo not given) | – | inactive: -12.7%
8 | CCc1cccc(C)c1NC(=S)NCCc1c(C)[nH]c2ccc(C)cc12 | active: 20.6 µM | –
9 | Cc1ccc(S(=O)(=O)CCC(=O)Nc2ccccc2C)cc1 | active: 23.1 µM | –
10 | CCOP(=O)(OCC)C(C#N)=C1SCN(c2ccc(Cl)cc2)CS1 | inconclusive [inhibitor, single point] | –
11 | COc1ccc(N2CCN(C(CNC(=O)C(=O)NCCCn3ccnc3)c3ccco3)CC2)cc1 (stereo not given) | – | inactive: 16.8%
12 | Clc1ccccc1Nc1nc(-c2ccncc2)nc2ccccc12 | active: 16.4 µM | –
13 | O=C(NC1CCN(C(=O)Nc2ccccc2Cl)CC1)c1cccc(F)c1 | inconclusive [inhibitor, single point] | –
14 | CC[n+]1c(/C=C/Nc2ccccc2)oc2ccccc21 | active: 14.6 µM | –
15 | CCc1cccc(NC(=O)CN(c2ccc(OC)cc2)S(=O)(=O)c2c(C)n[nH]c2C)c1 | – | inactive: -19.9%
16 | CN1CCN(c2nc(-c3cccc(C#N)c3)nc3ccccc23)CC1 | inconclusive [inhibitor, partial curve] | –
17 | COc1cccc(CN(C)C(=O)CN2C(=O)NC(c3ccccc3)(c3ccccc3)C2=O)c1OC | inconclusive [inhibitor, single point] | –
18 | Cc1cccc(CCNC(=O)C2CCN(S(=O)(=O)c3c(C)noc3C)CC2)c1 | inconclusive [inhibitor, single point] | –
19 | Cn1ccc2c(-c3cccc(C=O)c3)cc3c(c21)C1CCC3O1 (stereo not given) | inconclusive [inhibitor, single point] | –
20 | COc1ccc(Cl)cc1NC(=O)NCC1CCN(Cc2cc(C)ccc2C)CC1 | inconclusive [inhibitor, single point] | –
21 | O=c1oc2ccccc2n1Cc1ccccc1 | – | inconclusive: -26.9% [inhibitor]
22 | Cc1cc(O)c(C(=O)/C=C/c2ccc(Cl)cc2)c(=O)o1 | inconclusive [inhibitor, single point] | –
23 | CCOC(=O)N1C(=O)NC(=O)C1c1ccc(Cl)cc1 (stereo not given) | – | inactive: -9.33%

Row | SMILES | Potency | activity change, negative = growth inhibition
24 | COc1cc(Cl)c(NS(=O)(=O)c2cc(-c3cc(C)no3)ccc2OC)c(OC)c1 | inconclusive [inhibitor, single point] | –
25 | CC(C)N(C)c1ncnc2c1ncn2[C@H]1CN(Cc2ccccc2)C[C@@H](CO)O1 | inconclusive [inhibitor, single point] | –
26 | CCCCN(CC)CCNC(=O)C1CCCN(c2ncnc3onc(C)c23)C1 (stereo not given) | – | inactive: -15.6%
27 | Cc1cccc(Cc2cnc(NC(=O)c3ccc(C)o3)s2)c1 | inconclusive [inhibitor, single point] | –
28 | CC(=O)c1ccc(NC(=O)c2ccc(-n3cnnc3)cc2)cc1 | – | inactive: -6.01%
29 | COc1ccc(C2c3ccc(O)cc3Oc3ncn(Cc4ccco4)c(=N)c32)cc1OC (stereo not given) | inconclusive [inhibitor, single point] | –
30 | FC(F)(F)c1cccc(-c2nn[nH]n2)c1 | – | inactive: -12.8%
31 | CC(C)C[C@@H]1O[C@H](CCc2ccccc2)Cc2[nH]c(=S)[nH]c(=O)c21 | inconclusive [inhibitor, single point] | –
32 | CCCn1c(=N)n(CC(=O)C(C)(C)C)c2ccccc21 | inconclusive [inhibitor, single point] | –
33 | COc1cc(-c2nnc(COC(=O)C3c4ccccc4Oc4ccccc43)o2)cc(OC)c1OC | inconclusive [inhibitor, single point] | –
34 | COc1ccc(CC(=O)Nc2cccc(/C(C)=N/NC(=O)c3cccc([N+](=O)[O-])c3)c2)cc1 | inconclusive [inhibitor, single point] | –
35 | O=C(NC(=O)c1c(F)cccc1F)O/N=C1\CCCc2occc21 | inconclusive [inhibitor, full curve, poor fit] | –
36 | O=S(=O)(NCC(c1ccco1)S(=O)(=O)c1cccs1)c1ccc(Cl)cc1 (stereo not given) | inconclusive [inhibitor, single point] | –
37 | Oc1ccc(Br)cc1/C=N/Nc1nc(N2CCCCC2)nc(N2CCOCC2)n1 | inconclusive [inhibitor, single point] | –
38 | CN1CCN(S(=O)(=O)c2ccc(Cc3ccc(S(=O)(=O)N4CCN(C)CC4)cc3)cc2)CC1 | inconclusive [inhibitor, partial curve] | –
39 | Cc1cc(/C=C2\SC(=S)N(C)C2=O)c(C)n1-c1ccc(O)cc1 | inconclusive [inhibitor, partial curve] | –
40 | Cc1ccc(CSCCC(=O)NCc2ccc(F)cc2Cl)cc1 | – | inactive: -24.7%
41 | CC(=O)c1cccc(NS(=O)(=O)c2cc(-c3cnc(C4CC4)o3)ccc2C)c1 | active: 2.59 µM and active: 5.17 µM | –
42 | CCc1nn(CC(=O)N(C)Cc2ccccc2)c(=O)c2cc3sccc3n12 | inconclusive [inhibitor, partial curve, poor fit] | –
43 | CCc1nn(C(CC)C(=O)NCCCN2CC(C)CC(C)C2)c(=O)c2cc3oc(C)cc3n12 (stereo not given) | inconclusive [inhibitor, single point] | –
44 | COC(=O)c1ccccc1NC(=O)Cn1cnc([N+](=O)[O-])c1 | – | inactive: 13.1%
45 | C[C@@H]1CN([C@@H](C)CO)C(=O)CCCn2nncc2CO[C@H]1CN(C)S(=O)(=O)c1ccc(F)cc1 | inconclusive [inhibitor, full curve, poor fit] | –

Source: PubChem BioAssay AID686978 (National Center for Advancing Translational Sciences (NCATS), 2013)
